The values below come from the RNAGym collection of RNA variant scans (doi:10.7554/elife.90254).

Read counts are not given, so values of variants with three or more changes are uncertain.

To fix the notation:
B1: LINE1-full (parent)
chain: UACGUAGGUGGUUUUCCCCUGAUAGUGCUAAGGGGGCCUGGAAGUUUGGACUGGGCAGAGCUCAACACAGCGUGGCAAAGUGGCUGUGGCUAGACUGCCUCUCUGGAUUCCUCGUCACUCAGCAGGGCAUCUCUGAGAGAAAUGCC

In this data set the parent is B1. Put plainly: self-cleavage, relative activity (ratio to wild type); higher = more cleavage; in vitro, sequencing; the parent is a self-cleaving ribozyme.
As for UACGUAGGUGGUUUUCCCCCGAUAGUGCUAAGGGGGCCUGUAAGUUUGGACUGGGCAGAGCUCAACACAGCGUGGCAAAGUGGCUGUGGCUAGGCUGCCUCUCUGGAUUCCUCGUCACUCAGCAGGGCAUCUCUGAGAGAAAUGCC [U20C G41U A94G], the self-cleavage was 0.31.
With UACGUAGGUGGUUUUCCCUUGAUAGUGCUAAGGGGGCCUGGAAGUUUGGACUGGGCAGAGCUCAGCACAGCGUGGCAAAGUGGCUGUGGCUAGACUGCCUCUCUGGAUUCCUCGUCACUCAGCAGGGCAACUCUGAGAGAGAUGCC [C19U A65G U130A A141G], the self-cleavage is 0.07.
With UACGUAGGUGGUUUUCCCCUGAUAGUGCUAAGGGGGCCUGGAAGUUUGGACUGGGCAGAGCACAACACAGAGUGGCAAAGUGGCUGCGGCUAGACCGCCUCUCUGGAUUCCUCGUCACUCAGCAGGGCAUCUCUGAGAGAAAUGCC [U62A C71A U87C U96C] the figure was 0.04; with UACGUAGGUGGUUUUCCCCUGAUAGUGCUAAGGGGGCCUGGAAGUUUGGGCCGGGCAGAGCUCAACACAGCGUGGCAAAGUGGCUGUGGCUAGACUGCCUCUCUGGAUACCUCGUCACUCAGCAGGGCAUCUCUGAGAGGAAUGCC [A50G U52C U109A A140G], 0.
As to UACGUAGGUGGUUUUCCCCUGAAAGUGCUAAGGGGGCCCGGAAGUUUGGACUGGGCAGAGCCCAACACAGCGUGGCAAAGUGGCUGUGGCUAGACUGCCUCUCUGGAUUCCUCGUCACUCAGCAGGGCAUCUCUGAGAGAAAUGCC [U23A U39C U62C], the self-cleavage was 0.3.
In the case of UACGUGGGUGGUUUUCCCCUGAUAGUGCUAAGGGGGCCCGGAAGAUUGGACUGGGCAGAGCUCAACACAGCGUGGCAAAGUGGCUGUGGCUAGACUGCCACUCUGGAUUCCUCGUCACUCAGCAGGGCAUCUCUGAGAGAAAUGCC [A6G U39C U45A U100A] it was 0.88; in that of UACGUAGGUGGUUUUCCCCUGAUGGUGCUAAGGGGGCCUGGAAGUUCGGACUGGGCAGAGCUUAACACAGCGUGGCAAGGUGGCUGUGGCUAGACUGCCUCUCAGGAUUCCUCGUCACUCAGCAGGGCAUCUCUGAGAGAAAUGCC [A24G U47C C63U A79G U104A], 0.94; in that of UACGUAGGUGGUUUUCCCCUGAUAGUGCCAAGGGGGCCUGGAAGUUUGGACUGGACAGAGCACAACACAGCGUGGCAAAGUGGCUGUGGCUAGACUGCCUCUCUGGAUUCCUCGUCACUCAGCAGGGCAUCUCUGAGAGAAAUGCC [U29C G55A U62A], 0.05.
With UACGUAGGUGGUUUUCCCCUGAUAGUGUUAAGGGGGCCUGGAAGUUCGGACUGGGCAGAGCUCAACACAGCGUGGCAGAGUGGCUGUGGCUAGACUGCCUCUCUGGAUUCCUCGUCACUCAGCAGGGCAUCUCUGAGGGAAAUGCC [C28U U47C A78G A138G], the self-cleavage came to 0.5.
In the case of UACGUAGGUGGUUUUCCCCUGAUAGUGCUAAGGGGGCCUGGAAGUUAGGACUGGGCAGAGCUCAGCACAGCGUGGCGAAGUGGCUGUGGCUAGACUGCCUCUCUGGAUUCCUCGUCACUCAGCAGGGCAUCUCUGAGAGGAAUGCC [U47A A65G A77G A140G] it was 0.04; in that of UACGUAGGUGGUUAUCCCCUGAUAGAGCUAAGGGGGCCUGGAAGUUUGGACUGGGCAGAGCUCAACACAGCGUGGCAAAGUGGCUGUGGCUAGUCUGCCUCUCUGGAUUCCUCGUCACUCAGCAGGGCAUCUCUGGGAGAAAUGCC [U14A U26A A94U A136G], 0.37; in that of UACGAAGGUGGUUCUCCCCUGAUAGUGCUAAGGGGGCCUGGAAGUUUGGACUGGGCAGAGCUCAACACAGCGUGGCAAAGUGGCUGUGGCUAGACUGCCUCUCUGGACUCCUCGUCACUCAGCAGGGCAUCUCUGAGAGAAAUGCC [U5A U14C U108C], 1.23.
Consider UACGUAGGUGGUUUUCCCCUGAUAGUGCUAAGGGGGCCUGGAAGUUUGGACUGGGCAGAGCUCAACACAGCGCGGCAAAGUGGCUGUGGCUAGACUGCCUCUCUGGAUUCCUCGUCACUCAGCAGGGCACCGCUGAAAGAAAUGCC [U73C U130C U132G G137A], for which the self-cleavage is 2.04.
With UCCGUAGGUGGUUUUCCCCUGAUAGUGCUAAGGGGGCCUGGAAGUUUGGACUGGGCAGAGCUCAACACAGCGUGGCAAAGUGGCUGUGGCUAGACUGCCUCUCUAGAUUCCUCGUCACUCAGCAGGGCAUCACUGAGAGAAAUGCC [A2C G105A U132A] the figure was 1.1.
In the case of CACGUAGGUGGUUUACCCCUGAUAGUGCUAUGGGGGCCUGGAAGUUUGGACUGGGCAGAGCUCAACACAGCGUGGCAAAGUGGCUGUGGCUAGACUGCCUCUCUGGAUUCCUCGUCACUCAGCAGGGCAUCUCUGAGAGAAAUGCC [U1C U15A A31U] it was 0.44; in that of UACGUAGGUGGUUUUCCCCUGGUAGAGCUAAGGGGGCCUGGAAGUUUGGACUGGGCAGAGCUCAACACAGCGUGGCAAAGUGGCCGUGUCUAGACUGCCUCUCUGGAUUCCUCGUCACUCAGCAGGGCAUCUCUGAGAGAAAUGCC [A22G U26A U85C G89U], 0.13.
In the case of UACGUAGGCGGUUUUCCCCUGAUAGUGCUAAGGGGGCCUGGAAGUUCGGACUGGGCAGAGCUCAACACUGCGUGGCAAAGUGGCUGUGGCUAGACUGCCUCUCUGGAUUCCUCGUUACUCAGCAGGGCAUCUCUGAGAGAAAUGCC [U9C U47C A69U C116U] it was 0.11; in that of UACGUAGGUGGCUUUCCCCUGAUAGUGCUAAGGGGGCCUGGAAGUUUGGACUGGGCAGAGCUCAACACAGCGUGGCAAAGUGGCUGUGGCUAGACUGCCUCUCUGGAUUCCUCGCCACUCAGCAGGGCAUCUCUGGGAGAAAUGCC [U12C U115C A136G], 2.02.
In the case of UACGUGGGUGGUUUUCCCCUGAUAGUGCUAAGGGGGCCUGGAAGUUUGGACUGGGCUGAGCUCAACACAGCGUGGCAAAGUGGCUGUGGCUAGACUGCCUCUCUGGAUUCCUCGUCACUCAGCAGGGCACCUCUGAGAGAAAUGCC [A6G A57U U130C], the self-cleavage is 0.
